Source: PMC12040169 (PLOS Biology, 2025)
The other results are listed elsewhere or left out.

The molecules below were run on T1, C. trachomatis L2/434/Bu expressing GFP (CTL2-GFP). Details: total inclusion area; 28.5 h, 10 µM; inhibitor.
T1 construct: L2/434/Bu GFP intracellular growth in HeLa cells
Set-up: species or system HeLa; C. trachomatis total inclusion area by high-content imaging, normalised to DMSO
Summary of the method: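 Host cell viability was gauged from Hoechst-stained nuclei counts, while chlamydial growth was taken from total inclusion area and inclusion number per well. Cells were fixed and imaged by high-content microscopy once bulk GFP and resorufin fluorescence had been measured.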

SMILES | % of control remaining
O=C1NNC=Cc2c1cnc1nc(C(F)(F)F)nn21 [CBK288156] | 110.151
O=C(NC1CCCN(c2ncccn2)C1)c1ccc(-c2ccc(F)cc2)s1 (centres unmarked) [CBK298337] | 76.9366
O=C(O)CCNC(=O)/C(=C/c1ccc(Cl)cc1)NC(=O)c1ccccc1 [CBK300484] | 75.3724
CCOc1ccc(-c2nc(CSc3n[nH]c(=O)n3CCc3ccccc3)cs2)cc1 [CBK296735] | 99.2154
C(CSC1=NCCN1)CSC1=NCCN1 [CBK278217B] | 83.0373
Cc1nnc(SCc2ccc(CSc3nnc(C)n3N)cc2)n1N [CBK265561] | 106.201
O=C(CSc1nnc(-c2ccncc2)o1)Nc1ccccc1 [CBK287586] | 93.5314
O=C1CC(C(=O)c2ccccc2)NC(N2CCOCC2)=N1 (centres unmarked) [CBK267352] | 101.384
COc1ccc(C)cc1S(=O)(=O)Nc1ccc(O[C@@H]2CCNC2)c2ccccc12 [CBK051622C] | 59.1908
CNC(=O)C1CCCN1C(=O)c1nnn(Cc2ccc(F)cc2F)c1C (centres unmarked) [CBK306496] | 44.7534
CCn1cc(-c2cncn2C(CCN(C)C)c2ccccc2)cn1 (centres unmarked) [CBK281741] | 100.916
CCN(CC)C(=O)c1[nH]c2ccccc2c1NS(=O)(=O)c1ccc(F)cc1 [CBK050105] | 45.6374
Cc1ccccc1NS(=O)(=O)c1cc(OCC(N)=O)c(C)cc1Cl [CBK266443] | 98.1199
CCc1nc2ccc(C(=O)Nc3ccc(OC)c(OC)c3)cn2c1N(CC)C(=O)NCCc1ccccc1 [CBK147035] | 104.392
COCCn1c(-c2ccc(CN3CCCC3)cc2)cc2onc(C)c2c1=O [CBK050385C] | 56.3755
CCN(CC)C(=O)Cn1nc(C)n2c(cc3occc32)c1=O [CBK283620] | 77.7128
O=C(Nc1ccc(OCc2ccccc2F)cc1)c1ccc(-n2cnnc2)cc1 [CBK285816] | 107.261
Cc1cc(OCC(=O)Nc2nn(Cc3ccccc3Cl)cc2Cl)ccc1[N+](=O)[O-] [CBK268113] | 94.316
Cc1cccc(C(=O)NC(=S)Nc2cccc(C(=O)O)c2)c1 [CBK264987] | 100.723
O=C(Nc1ccc(I)cc1C(=O)N1CCCCC1CCO)c1cccc2ccccc12 (centres unmarked) [CBK266212] | 132.637
COc1ccc(C(=O)n2nc(SC)nc2N)cc1 [CBK006853] | 90.8978
O=C(NCCOc1ccccc1Cl)NC(=O)C1CCN(CCOc2ccc(Br)cc2)CC1 [CBK034897] | 63.4333
CC(NC(=O)N(Cc1c[nH]c(-c2ccccc2)n1)CC(C)(C)CN)c1cccc2ccccc12 (centres unmarked) [CBK026801C] | 27.5834
COc1cc2c(c(OC)c1OC)CC(=O)NC21CCN(C(=O)CC(C)CC(=O)O)CC1 (centres unmarked) [CBK047265] | 91.7589
O=S(=O)(Nc1ccc(C(O)(C(F)(F)F)C(F)(F)F)cc1)c1csc2ccccc12 [CBK062098] | 106.511

SMILES | % of control remaining
O=C(NCCCN1CCOCC1)c1cc2cc([N+](=O)[O-])ccc2oc1=O [CBK263441] | 104.364
CS(=O)(=O)N1CC2(CCNCC2)c2ccccc21 [CBK005171] | 103.209
Cc1ccc(S(N)(=O)=O)cc1NC(=O)c1ccc[nH]1 [CBK050200] | 80.3857
CCCC/C=C/c1nccnc1NCCc1ccncc1 [CBK037370] | 127.878
Cc1ccc(S(=O)(=O)N2CCC(C(=O)NC(c3ccccc3C)c3ncccc3C)CC2)cc1 (centres unmarked) [CBK060249] | 105.698
CNC(=S)N/N=C/c1c(C)cccc1Cl [CBK021253] | 85.5861
O=C(O)c1ccc(/C=N/c2ccc(S(=O)(=O)c3ccc(/N=C/c4ccc(C(=O)O)cc4)cc3)cc2)cc1 [CBK262038] | 99.8748
Cc1ccc(CN(CCCn2ccnc2)Cc2ccsc2)o1 [CBK283253] | 68.4037
CCN(CC)C(=O)CN1CCC(c2ccc(OC)cc2)CC1 [CBK283559] | 74.0583
Cc1cc(N2CCOCC2)c2c(N)c(Br)cc(C)c2n1 [CBK066880] | 75.9556
Cc1cn(C2CC(O)C(C3N(c4ccccc4)CCN3c3ccccc3)O2)c(=O)[nH]c1=O (centres unmarked) [CBK201232] | 109.108
Cc1cccnc1NC(=O)c1c(O)c2ccccc2n(C)c1=O [CBK261431] | 89.6284
COC(=O)c1ccc(NC(=O)CN2CCC(C(N)=O)(N3CCCCC3)CC2)cc1 [CBK268275] | 95.4466
Cc1nc(N)nc(NCC(O)CN(C)C)c1Cl (centres unmarked) [CBK306963] | 83.3885
COC(=O)c1cc(NS(=O)(=O)c2cc(Cl)ccc2Cl)cc(C(=O)OC)c1 [CBK077853] | 92.6021
CCN1C(=O)c2[nH]nc(-c3ccccc3O)c2C1c1cccc(O)c1 (centres unmarked) [CBK288159] | 91.1942
Cc1cc(C)n(CCCC(=O)N2CC3(CCNCC3)CC2C(=O)O)n1 (centres unmarked) [CBK307174] | 86.4265
COc1ccc(CCC(C)N2CCN(c3ccc(F)cc3)CC2)cc1 (centres unmarked) [CBK261922] | 66.5938
CCOC(=O)Cc1csc(NS(=O)(=O)c2ccc(Br)cc2C)n1 [CBK200027] | 82.5389
CC(=O)Nc1ccc(Nc2cc(-c3ccsc3)ncn2)cc1 [CBK090717] | 58.0387
CCNc1cccnc1N1CCN(C(=O)CCC(=O)c2ccc(NS(C)(=O)=O)cc2)CC1 [CBK010701] | 102.557
O=C1N[C@@H]2CCN(CC(=O)N3CCCC3)C[C@@H]2CCCCCOc2ccccc21 [CBK292141] | 85.6639
c1ccc(Cn2cncc2-c2cncn2CCCN2CCCCC2)cc1 [CBK281490] | 71.9202
COc1ccc(C(=O)O)cc1S(=O)(=O)Nc1cccc(C=Cc2ccccn2)c1 [CBK297763] | 53.2481
COc1cc(/C=N/NC(=O)c2n[nH]c3c2CCC3)ccc1O [CBK262881] | 108.59
